Experiment [1] has as its system IFNγ-secreting splenocytes. Nature of the experiment: IFNγ ELISPOT, splenocytes of immunized C57BL/6 mice. As to conditions: C57BL/6 mice immunized with Aβ/CpG/IFA; day 14; restimulated with Aβ1-42 (40 μg/ml) or nonamers (10 μg/ml). It counts as in vivo, mouse.
The subject of experiment [2] is IFNγ-secreting splenocytes.

Turning to Aβ1-42: Human Aβ1-42 peptide, in experiment [1], the “IFNγ secretion by splenocytes” value is “splenocytes secreted IFNγ in response to full-length Aβ1-42”. In experiment [2] (HLA-A2.1/HLA-DR1 mice immunized with Aβ1-42/CpG/IFA, day 14, ELISPOT, Aβ1-42 40 μg/ml or 15-mers 10 μg/ml), the “IFNγ-secreting T cell response” value was “only CD4^+ T cells that secrete IFNγ responded to Aβ1-42 immunization and recognized an immunodominant epitope located between amino acids 1–18”. Take GLMVGGVVI [Aβ33-41]: in experiment [2] (HLA-A2.1/HLA-DR1 mice immunized sc with Aβ16-24 or Aβ33-41 in CpG/Padre/IFA, restimulated 18 h with the named peptide 10 μg/ml), the IFNγ-secreting splenocytes entry was “weak or null”.

For the origin of these results see paper PMC4448209 (Journal of Neuroinflammation, 2015).
